Laboratory results taken from PubChem BioAssay AID720707 (National Center for Advancing Translational Sciences (NCATS), 2013).
The whole screen tested about 360,000 compounds, of which about 270 (0.075%) were called active. Inconclusive means that the source gave no clear call. Such entries were picked first, then a sample of the others. Calls come from the whole dose curve; as a rule, active = well fitted activation curve with a large enough effect; inconclusive = small, poorly fitted or top-dose-only effect; inactive = no such curve, though single readings can be large or run the other way. Potencies of inconclusive entries are left out as doubtful fits.
Note: nearly all actives have a fitted effect of over 60% in size.
Potency is the fitted concentration of half-maximal effect; tags give direction and shape of the fitted curve.

Each compound was assayed against Rap guanine nucleotide exchange factor 3 (Homo sapiens) (UniProt O95398) (assay: qHTS for Agonist of cAMP-regulated guanine nucleotide exchange factor 3 (EPAC1): primary screen). Settings: biochemical assay; activation: at 154 µM (top of the series), 100% = response to 6.5 mM cAMP.
Sequence of UniProt O95398 (O95398 whole entry, looked up): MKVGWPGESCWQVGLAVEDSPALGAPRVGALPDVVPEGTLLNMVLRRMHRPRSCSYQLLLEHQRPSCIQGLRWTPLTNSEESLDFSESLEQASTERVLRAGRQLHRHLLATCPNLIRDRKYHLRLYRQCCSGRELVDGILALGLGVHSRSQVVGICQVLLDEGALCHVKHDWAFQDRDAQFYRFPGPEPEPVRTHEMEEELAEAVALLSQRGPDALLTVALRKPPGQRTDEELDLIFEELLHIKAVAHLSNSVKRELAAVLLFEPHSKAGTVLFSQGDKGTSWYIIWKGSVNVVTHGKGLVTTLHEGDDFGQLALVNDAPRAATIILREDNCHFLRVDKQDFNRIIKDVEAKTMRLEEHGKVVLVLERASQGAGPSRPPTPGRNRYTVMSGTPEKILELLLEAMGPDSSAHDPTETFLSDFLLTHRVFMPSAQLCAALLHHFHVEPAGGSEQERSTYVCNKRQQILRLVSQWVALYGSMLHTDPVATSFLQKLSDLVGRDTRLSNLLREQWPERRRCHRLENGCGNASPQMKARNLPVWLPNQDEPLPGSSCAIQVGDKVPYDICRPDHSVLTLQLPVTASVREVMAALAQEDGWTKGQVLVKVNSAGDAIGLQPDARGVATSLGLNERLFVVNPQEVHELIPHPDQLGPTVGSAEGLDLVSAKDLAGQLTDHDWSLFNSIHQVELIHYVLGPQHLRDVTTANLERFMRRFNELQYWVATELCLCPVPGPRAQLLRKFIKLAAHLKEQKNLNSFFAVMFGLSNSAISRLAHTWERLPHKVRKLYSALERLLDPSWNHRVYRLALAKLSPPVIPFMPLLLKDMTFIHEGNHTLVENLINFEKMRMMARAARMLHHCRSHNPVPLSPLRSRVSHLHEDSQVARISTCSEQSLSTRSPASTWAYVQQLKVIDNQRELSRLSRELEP
Method in brief: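 Normalized to 6.5 mM cAMP, activity reflects EPAC1-catalysed release of BODIPY-GDP from Rap1B, followed kinetically over 30 min at 480 nm excitation, 540 nm emission. Reaction contained 100 nM EPAC1, 250 nM Rap1B-BODIPY-GDP, 50 uM GDP.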
CCN1CCN(c2ccc(S(=O)(=O)N3CCCCC3)cc2NC(=O)COc2cc(C)ccc2Cl)CC1 was tested, and the Potency was inconclusive [activator, partial curve]. O=C(Nc1ccccc1Cl)c1cc(S(=O)(=O)N2CCCCC2)ccc1N1CCOCC1 was tested, and the Potency was “inactive”. With COC(=O)c1cc(-c2ccc(C)o2)nc2ccccc12 the Potency was “inactive”. O=C(CCS(=O)(=O)c1ccc(Br)cc1)N1CCN(c2ccccc2F)CC1 was tested, and the Potency was inconclusive [activator, single point]. In the case of CC(C)CCn1c(N)c(S(=O)(=O)c2cccs2)c2nc3ccccc3nc21, the Potency is reported as inconclusive [activator, partial curve]. For Oc1ccc(N=Nc2ccccc2)o1, the Potency was “inactive”. With COCCNC(=O)C1CCCN(C(=O)c2cccnc2Oc2ccccc2)CC1 (configuration not stated) the Potency was “inactive”. With CCN1CCN(c2ccc(S(=O)(=O)N3CCCCC3)cc2NC(=O)c2cccc(OC(F)F)c2)CC1 the Potency was inconclusive [activator, full curve]. In the case of CCCCc1ccc(NC(=O)CN2C(=O)C3CCCCC3C2=O)cc1 (configuration not stated), the Potency is reported as inconclusive [activator, full curve]. For CC(C)(C)NC(=O)NC(=O)CN1CCCc2ccccc21, the Potency was “inactive”. For Cc1ccc(NC(=O)C2CCN(S(=O)(=O)c3ccc4c(c3)OCCCO4)CC2)nc1, the Potency was inconclusive [activator, single point]. With Cc1ccc(NC(=O)COC(=O)Cn2c(C)csc2=O)c([N+](=O)[O-])c1 the Potency was active: 100 µM. For O=[N+]([O-])c1cccc(CNc2ccc3c(c2)CCC3)c1, the Potency was inconclusive [activator, single point]. For CCOC(=O)c1c(C)[nH]c(C(=O)OCC(=O)Nc2sccc2C(N)=O)c1C, the Potency was inconclusive [activator, full curve]. In the case of CCc1ccc(NC(=O)CNC(=O)Cn2ccc3ccccc3c2=O)cc1, the Potency is reported as “inactive”. With COc1ccccc1NC(=O)Cc1ccc(-c2ccccc2)cc1 the Potency was inconclusive [activator, partial curve]. For COc1ccc(/C=C(\C#N)c2c[nH]c3ccccc23)cc1, the Potency was inconclusive [activator, single point]. For CCCc1ccc(-c2cc(NC(=O)CSc3n[nH]c(N)n3)n(-c3ccccc3)n2)cc1, the Potency was inconclusive [activator, full curve, poor fit]. In the case of N#Cc1cc(C(=O)c2cc(F)ccc2O)cn(-c2nccs2)c1=O, the Potency is reported as inconclusive [activator, partial curve]. With CCCCn1nc(C(=O)NNC(=O)c2ccncc2)c2ccccc2c1=O the Potency was inconclusive [activator, full curve, poor fit]. With O=C(c1ccccc1Cc1ccccc1)N1CCN(S(=O)(=O)c2ccccc2Br)CC1 the Potency was inconclusive [activator, single point]. For CC(=O)Nc1cccc(C(=O)OC(C)C(=O)NC2CCCc3ccccc32)c1 (configuration not stated), the Potency was inconclusive [activator, full curve, poor fit]. In the case of c1ccc(CCc2nn3c(Cn4nnc5ccccc54)nnc3s2)cc1, the Potency is reported as “inactive”. In the case of COc1ccc(N(C)S(=O)(=O)c2ccc(Cl)c(C(=O)NNC(=O)c3ccccc3O)c2)cc1, the Potency is reported as inconclusive [activator, full curve]. With C[C@H]1CN([C@@H](C)CO)S(=O)(=O)c2ccc(C#Cc3ccccn3)cc2O[C@@H]1CN(C)C(=O)C1CC1 the Potency was “inactive”. With COc1cccc(CNC(=O)C2CCC(=O)N(CCc3cccc(F)c3)C2)c1 (configuration not stated) the Potency was inconclusive [activator, partial curve]. For CC(=O)NC(c1cccs1)c1cc(Cl)c2ccccc2c1O (configuration not stated), the Potency was “inactive”. With CCCn1c(SCC(=O)c2cc(C)ccc2C)n[nH]c1=O the Potency was inconclusive [activator, partial curve]. For Cc1cccc(NCc2nc3ccccc3n2Cc2ccccc2)c1, the Potency was inconclusive [activator, partial curve]. With Cc1ccc(C)c(N2N=C(C(=O)Nc3ccccc3N3CCCC3)CCC2=O)c1 the Potency was inconclusive [activator, single point]. Oc1ccc(Cl)c2cccnc12 was tested, and the Potency was “inactive”. In the case of CC1=CC2=NC(=O)/C(=C/c3coc4ccccc4c3=O)C(=N)N2O1, the Potency is reported as inconclusive [activator, partial curve]. In the case of CCOc1cc(S(=O)(=O)Nc2cc(C)cc(C)c2)ccc1Cl, the Potency is reported as inconclusive [activator, partial curve]. With CCCCCCn1c(=O)[nH]c2nc3cc(N)c(C)cc3nc2c1=O the Potency was inconclusive [activator, single point]. O=C(OCC(=O)N1CCCC1=O)c1cc(Cl)ccc1O was tested, and the Potency was inconclusive [activator, partial curve, poor fit]. For COc1ccc(C(=O)NC(=S)Nc2ccc(CN3CCOCC3)cc2)cc1Cl, the Potency was “inactive”. In the case of C[n+]1cc(C(=O)N2CCCCC2)ccc1/C=C/c1c[nH]c2ccccc12, the Potency is reported as inconclusive [activator, partial curve]. In the case of COc1ccc(-c2csc(N3CCC(C(N)=O)CC3)n2)cc1, the Potency is reported as “inactive”. In the case of Cc1ccc(OC(C)C(=O)Nc2ccc(S(=O)(=O)N3CCOCC3)cc2)cc1 (configuration not stated), the Potency is reported as inconclusive [activator, single point]. With Cc1ccc(N2CC(NC(=O)C(=O)c3c[nH]c4ccccc34)CC2=O)cc1C (configuration not stated) the Potency was inconclusive [activator, partial curve, poor fit]. With Cc1ccc2c(c1)c(/C=C/c1cc[n+](C)cc1)c(C)n2C the Potency was inconclusive [activator, partial curve]. O=C(NCCN1C(=O)S/C(=C\c2ccccc2F)C1=O)C1=COCCO1 was tested, and the Potency was inconclusive [activator, full curve, poor fit]. Cc1ccc(S(=O)(=O)CC(=O)N(CCCN(C)C)c2nc3ccc(C)cc3s2)cc1 was tested, and the Potency was inconclusive [activator, partial curve]. For CC(C)CN(C(=O)CC1OC(=O)c2ccccc21)c1c(N)n(Cc2ccccc2)c(=O)[nH]c1=O (configuration not stated), the Potency was inconclusive [activator, single point]. With O=C1NC(=S)S/C1=C\c1ccc(SCc2ccccc2)o1 the Potency was “inactive”. CCOc1ccc(S(=O)(=O)N2CCCCC2)cc1NC(=O)CC1OC(=O)c2ccccc21 (configuration not stated) was tested, and the Potency was inconclusive [activator, single point]. CCOC(=O)/C(=C/C=C1\Sc2ccccc2N1CC)C(C)=O was tested, and the Potency was inconclusive [activator, full curve, poor fit]. In the case of C=CCn1c(O)c2ccc(C(=O)N=NC(=O)COc3ccccc3F)cc2c1O, the activation is reported as inconclusive: 19.2% [activator]. In the case of Cc1cc(C)n(CC(=O)NCc2ccccc2)c(=O)c1C#N, the Potency is reported as “inactive”. In the case of CN(CC(=O)Nc1ccc(F)cc1)C(=O)CSc1ccc2c(c1)OCCO2, the Potency is reported as “inactive”. For Cc1ccc(C)c(S(=O)(=O)N2CCN(C(=O)c3cccnc3)CC2)c1, the Potency was “inactive”. With CC(C)c1ccc(/C=N/NC(=O)CN(c2cccc(Cl)c2Cl)S(C)(=O)=O)cc1 the Potency was inconclusive [activator, single point]. For O=C(Nc1ccc(F)cc1)C(c1ccnc2ccccc12)N1CCN(C(=O)c2ccco2)CC1 (configuration not stated), the Potency was “inactive”. In the case of N=C1C=CC(=C(c2ccc(N)cc2)c2ccc(N)cc2)C=C1, the Potency is reported as inconclusive [activator, partial curve]. For O=C(O)CC/C(=C/c1cccc(NC(=O)c2ccccc2Cl)c1)c1nc2ccccc2s1, the Potency was inconclusive [activator, partial curve]. C[C@H](O)[C@@H]1CN2CCc3c([nH]c4ccccc34)[C@@H]2C[C@@H]1N(C)C(=O)Nc1cc(Cl)cc(Cl)c1 was tested, and the Potency was inconclusive [activator, partial curve]. In the case of O=C(OCC(=O)N1CCCC1=O)c1cc(S(=O)(=O)N2CCOCC2)ccc1Cl, the Potency is reported as inconclusive [activator, single point]. COc1ccc(Cl)cc1NC(=O)CN(C)C(=O)c1cc2c(s1)CCC(C)C2 (configuration not stated) was tested, and the Potency was inconclusive [activator, partial curve]. CC(Oc1ccc(F)cc1)C(=O)Nc1ccc2ccccc2c1 (configuration not stated) was tested, and the Potency was inconclusive [activator, partial curve]. CCCCC(=O)NC(=S)Nc1ccc(Cl)c(C(=O)O)c1 was tested, and the Potency was “inactive”. With CCCOc1cccc(C2C(C(=O)c3cccs3)=C(O)C(=O)N2Cc2cccnc2)c1 (configuration not stated) the Potency was inconclusive [activator, partial curve]. In the case of CN1/C(=C\C=C(/C#N)C(=O)Nc2ccc(Cl)cc2)C(C)(C)c2ccccc21, the Potency is reported as inconclusive [activator, single point]. In the case of O=S(=O)(c1ccc(Br)s1)N1CCN(c2ccc(F)cc2)CC1, the Potency is reported as “inactive”. COc1cc(C(C)=O)ccc1OCc1cc(C(=O)N(C)CCC2CCCCO2)no1 (configuration not stated) was tested, and the Potency was “inactive”. With CCCCn1c(N)c(N(CC(C)C)C(=O)C2CCN(C(=O)c3ccc(Cl)cc3)CC2)c(=O)[nH]c1=O the Potency was inconclusive [activator, single point]. For Cc1ccc(S(=O)(=O)Nc2cccc(C(=O)NCC(c3ccco3)N3CCCCC3)c2)cc1F (configuration not stated), the Potency was inconclusive [activator, partial curve, poor fit]. O=C(NCCN1C(=O)S/C(=C\c2ccccc2F)C1=O)C1CCCN1C(=O)c1cccs1 (configuration not stated) was tested, and the Potency was inconclusive [activator, single point].
